Test results as given in PubChem BioAssay AID1030 (National Center for Advancing Translational Sciences (NCATS), 2008).
Values joined by “and” are separate entries in the source; they are usually repeats but may differ in a detail not shown here. Equal values may be shown once. Out of some 220,000 compounds screened, about 16,000 (7.3%) were called active. The inconclusive results got no clear call from the source; some entries with a clear call stand among them for comparison. Calls follow the shape of the dose curve; as a rule, active = well fitted inhibition curve with a large enough effect (not every such curve was filed as active); inconclusive = small, poorly fitted or top-dose-only effect, or another doubt; inactive = no such curve, though single readings can be large or run the other way. Potencies of inconclusive entries are doubtful fits and often do not repeat.

molecular target: Aldehyde dehydrogenase 1A1 (Homo sapiens) (UniProt P00352); assay: qHTS Assay for Inhibitors of Aldehyde Dehydrogenase 1 (ALDH1A1); conditions: Purified ALDH1A1, NADH fluorescence, propionaldehyde substrate; series mostly up to 75.3 µM;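 as to activity, negative = inhibition: plate controls were no enzyme wells and a reference inhibitor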
UniProt P00352, sequence (P00352 whole entry, looked up): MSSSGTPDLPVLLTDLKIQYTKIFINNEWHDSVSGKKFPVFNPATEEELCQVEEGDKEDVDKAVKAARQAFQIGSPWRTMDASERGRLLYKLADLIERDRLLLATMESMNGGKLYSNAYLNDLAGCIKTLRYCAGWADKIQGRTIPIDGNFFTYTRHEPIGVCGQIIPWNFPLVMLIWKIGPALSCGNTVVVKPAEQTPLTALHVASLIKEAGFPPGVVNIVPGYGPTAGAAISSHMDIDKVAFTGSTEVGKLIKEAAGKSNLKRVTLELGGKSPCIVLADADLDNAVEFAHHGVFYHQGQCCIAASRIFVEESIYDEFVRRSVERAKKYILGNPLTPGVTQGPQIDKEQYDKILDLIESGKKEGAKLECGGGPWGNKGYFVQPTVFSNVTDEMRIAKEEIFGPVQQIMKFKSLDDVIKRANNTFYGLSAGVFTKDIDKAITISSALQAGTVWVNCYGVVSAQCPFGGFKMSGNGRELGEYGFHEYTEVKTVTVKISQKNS
Potency is read from the fitted curve at half-maximal effect; tags tell the direction and shape of the fitted curve.

Potency, inactive:
COc1ccc(C(=O)O)cc1NS(=O)(=O)c1cccc2nsnc12, C/C(=N\N=C(N)N)c1ccc(Cl)cc1Cl, Cc1nn(C)c(C(=O)NNC(=S)Nc2ccc(F)cc2)c1[N+](=O)[O-], N#Cc1ccc(Cl)cc1NC(=O)COC(=O)[C@H](CCC(N)=O)NC(=O)c1ccc(F)cc1, COc1ccc(-c2nc(CN3CCCCC3c3nccn3C)c(C)o2)c(C)c1C (centres undefined), O=C(Nc1cccc2ccccc12)c1ccc([N+](=O)[O-])s1, COc1ccc(C)cc1Nc1cc(C)nc2nc(C)nn12, Cc1ccc(C(C(=O)NC2CCCC2)N(C(=O)Cc2cccs2)c2ccc(C)c(C)c2)o1 (centres undefined), COc1ccc(C(C)(C)C)cc1NC(=O)Cn1cnnn1, O=C(NCc1ccccc1)c1csc2c1CCCC2, COc1ccc(C(=O)/C=C/c2ccccc2)c(OC)c1, CC1CCN(S(=O)(=O)c2ccc(NC(=O)CSc3nnnn3C)cc2)CC1, CCCN(C(=O)CSc1nnnn1C)C1CCS(=O)(=O)C1 (centres undefined), CCN(CC)C(=O)NC1CCCCCCC1, COc1ccc(S(=O)(=O)NC2CCCCC2)c(C)c1C, COc1ccc2c(c1)C(c1cc(OC)c(OC)c(OC)c1)CC(=O)O2 (centres undefined), Cc1cc(C)c(S(=O)(=O)n2ccc3ccccc32)c(C)c1, CCOCCCNC(=O)c1ccc(N(C)S(=O)(=O)c2ccc(OC)cc2)cc1, N#CN=C(N)c1ccccc1, Cc1ccc(CSc2nnc(CC(=O)Nc3ccc(C)cc3)n2C)cc1, CC(NC(=S)Nc1ccc(Cl)cc1)C(c1ccccc1)N1CCOCC1 (centres undefined), CCOc1ccc(NC(=O)CS(=O)(=O)c2cn(CC)c3ccccc23)cc1

Potency, inconclusive:
COC(=O)c1ccc2c(=O)n(CCN3CCOCC3)c(SCC(=O)NCc3ccccc3)nc2c1 3.55 µM [inhibitor, full curve], N#CCCn1c(=O)c(-c2ccc(Cl)cc2)nc2cnc(N3CCOCC3)nc21 35.5 µM [inhibitor, single point], CCN(CC)c1ccc(S(=O)(=O)N(CC)CC)cc1NC(=O)c1cccnc1 39.8 µM [inhibitor, single point], CCCC1=C(C(=O)OCC)C(c2ccc(OC)c(CSc3ccccn3)c2)C(C#N)=C(N)O1 (centres undefined) 39.8 µM [inhibitor, single point], CC(C)C(C)(C#N)NC(=O)CSc1ncnc2sc(-c3ccccc3)cc12 (centres undefined) 39.8 µM [inhibitor, single point], CC1CCC/C(=N\NC(=S)NCc2ccccc2)C1 (centres undefined) 28.2 µM [inhibitor, single point], N#Cc1cc2c(nc1SCC(=O)Nc1nccs1)CCCCC2 35.5 µM [inhibitor, single point], COc1ncnc2c1cnn2-c1ccccc1 39.8 µM [inhibitor, single point], COc1cc(/C=N/NC(=O)c2[nH]nc3c2CCc2ccccc2-3)ccc1O 39.8 µM [inhibitor, single point], CCN(C(=S)Nc1cc(S(=O)(=O)N2CCOCC2)ccc1Cl)c1cccc2ccccc12 25.1 µM [inhibitor, partial curve], C=CCn1c(=O)c(C(=O)Nc2ccccc2O)c(O)c2ccccc21 20 µM [inhibitor, partial curve], CCOC(=O)NNS(=O)(=O)c1cc(Br)ccc1Br 35.5 µM [inhibitor, single point], COC(=O)C1=C(C)N=C2SC(C#N)=C(N)N2C1c1ccc(OC)cc1 (centres undefined) 22.4 µM [inhibitor, partial curve], CCOc1ccc(NCc2nnc(SCC(=O)Nc3nc(-c4ccccc4)cs3)n2-c2ccccc2)cc1 20 µM [inhibitor, single point], COC(=O)c1sccc1NC(=O)CSCCc1ccncc1 39.8 µM [inhibitor, single point], Cc1ccc(-c2noc(CN(C(=O)CCCCCN3C(=O)c4ccccc4C3=O)C(C)C)n2)cc1 17.8 µM [inhibitor, partial curve, poor fit], O=c1cc(N2CCN(c3ccccc3F)CC2)[nH]c(=O)n1-c1ccc(Br)cc1 28.2 µM [inhibitor, partial curve], COc1ccc2cc(CN(C(=O)Nc3ccccc3OC)C3CCCC3)c(=O)[nH]c2c1 39.8 µM [inhibitor, single point], CCOc1ccc(S(=O)(=O)Nc2cc(Cl)ccc2O)cc1 8.91 µM [inhibitor, single point], O=C(N/N=C1\CCc2ccccc21)c1ccc(O)cc1 44.7 µM [inhibitor, single point], CCc1ccc(NC(=O)c2sccc2-n2cccc2)cc1 22.4 µM [inhibitor, single point], O=C(CNc1ccc2ccccc2c1)N/N=C/c1ccc([N+](=O)[O-])o1 8.91 µM [inhibitor, partial curve, poor fit], CCOc1ccc(C2C(C#N)=C(C)NC3=C2C(=O)c2ccccc23)cc1 (centres undefined) 25.1 µM [inhibitor, partial curve], O=C(Nc1nc(-c2ccco2)c(-c2ccco2)s1)C1CCC1 35.5 µM [inhibitor, single point], Cc1ccc(S(=O)(=O)Nc2ccccc2CNc2ncc(Br)cc2Br)cc1 28.2 µM [inhibitor, single point], Nc1ccc(-c2cc(-c3ccc(N)cc3)nc(-c3ccccc3)n2)cc1 1 µM [inhibitor, partial curve], CCOc1cc(/C=N/N=C2/NC(=O)C(CC(=O)O)S2)ccc1OCc1ccc(Cl)cc1 (centres undefined) 28.2 µM [inhibitor, single point], O=C(c1ccc(-n2cnnn2)cc1)N1CCCCC1 22.4 µM [inhibitor, partial curve], O=C(NC(NC(=S)Nc1ccccc1Cl)C(Cl)(Cl)Cl)c1cccc(Cl)c1 (centres undefined) 39.8 µM [inhibitor, single point], CC(=O)Nn1cnc2c(c1=O)C1(CCCC1)Cc1ccccc1-2 15.8 µM [inhibitor, partial curve, poor fit], O=[N+]([O-])c1ccc(NC(=S)N2CCN(c3ccccc3)CC2)cc1 35.5 µM [inhibitor, single point], Cc1ccc(C(Sc2ccccc2)C(Cn2cncn2)C(=O)c2ccccc2)cc1 (centres undefined) 39.8 µM [inhibitor, single point], O=C(c1ccc(N2CCOCC2)nc1)N1CCOCC1 39.8 µM [inhibitor, partial curve], CN(/N=C/C=C/c1ccccc1)c1cc(=O)n(C)c(=O)[nH]1 44.7 µM [inhibitor, single point], CN(C(=O)COC(=O)c1cc(-c2ccccc2Cl)nc2ccccc12)C1CCS(=O)(=O)C1 (centres undefined) 20 µM [inhibitor, single point], C/C(=N/NC(=O)c1cccs1)c1ccc(NC(=O)COc2ccc(Cl)cc2Cl)cc1 39.8 µM [inhibitor, single point], COc1ccc(CN(C)C(=O)COC(=O)c2c(-c3ccccc3Cl)noc2C)cc1 31.6 µM [inhibitor, single point]

Potency, active:
CCOC(=O)c1sc(N(Cc2ccccc2)C(=O)CSc2ncn[nH]2)nc1C 4.47 µM, C[N+](C)(C)CCC(=O)c1cccc2ccccc12 89.1 nM and 70.8 nM, CC(C)OC(=O)/C(C#N)=C\c1cccnc1 8.91 µM, CCOC(=O)C(Oc1ccc(=O)n(-c2ccccc2)n1)C(C)=O (centres undefined) 17.8 µM, N#Cc1c(-n2cccc2C=O)sc2c1CCCC2 31.6 µM, O=C(NCCN1C(=O)C2C3C=CC(C3)C2C1=O)Nc1ccc(Br)cc1 (centres undefined) 11.2 µM, CN1C(=O)C(O)(CC(=O)/C=C/c2ccco2)c2cc(Br)ccc21 (centres undefined) 23.8 µM, O=C(/C=C/c1ccncc1)c1ccc2c(c1)OCCO2 0.891 µM, C[C@@H](C(=O)Nc1nc(-c2ccccn2)cs1)N1C(=O)C2CCCCC2C1=O (some centres undefined) 12.6 µM, COC(=O)c1ccc(C2C(C#N)=C(N)Oc3cc(C)n(C)c(=O)c32)cc1 (centres undefined) 25.1 µM, Cc1ccc(NC(=O)COC(=O)c2ccc([N+](=O)[O-])o2)cc1S(=O)(=O)N1CCCCC1 25.1 µM, CCc1nc(N[C@@H](CC(C)C)C(=O)O)c2oc3ccccc3c2n1 0.891 µM, COc1ccc(CNC(=O)[C@H](C)[C@H]2C[C@]2(C)[C@H](NC(=O)OCc2ccccc2)c2ccccc2)cc1OC 3.55 µM, COc1ccc(C(CNC(=O)c2ccc(S(=O)(=O)N(C)C)cc2)N2CCCC2)cc1 (centres undefined) 4.47 µM

activity, negative = inhibition, inactive:
CC(C)=CCC/C(C)=C/CO/N=C1/C[C@@H](O)[C@@H](O)[C@@H]2[C@@H]3C(=O)N(Cc4ccc5c(c4)OCO5)C(=O)[C@H]3CC[C@@H]12 -5.06% [at 13.5 µM]
